Data as given in PMC3318706 (The Journal of Biological Chemistry, 2012).

Target: the molecule itself
Assay: SEC

B1: p97 R155C/N387C disulfide mutant (enzyme)
chain: not shown
modifications: disulfide bond between […] (non-reducing conditions)
  stoichiometry N: 6
